# The list shows a part of the results. Read counts after selection give these values, which scatter widely.
# T1: SIN3A_PAH__Q96ST3_295_383
# T1 chain: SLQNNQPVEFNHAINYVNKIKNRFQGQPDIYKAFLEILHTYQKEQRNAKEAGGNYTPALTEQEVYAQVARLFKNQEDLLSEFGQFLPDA
# T2: SPOP_MATH__O43791_19_176
# T2 chain: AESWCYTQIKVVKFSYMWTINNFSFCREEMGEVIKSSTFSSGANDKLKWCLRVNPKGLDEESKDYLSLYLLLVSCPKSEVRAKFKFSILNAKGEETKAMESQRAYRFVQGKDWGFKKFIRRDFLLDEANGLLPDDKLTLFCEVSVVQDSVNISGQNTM
# Experiments:
# Test in all cases: mean normalised NGS count of phage-displayed peptide after selection on bait (% of reads); baits are purified protein domains named by gene / domain / UniProt id / residues; peptides come from disordered regions of human proteins; higher = stronger enrichment / binding
# [1] = molecular target: T1, SIN3A_PAH__Q96ST3_295_383
# SNX27_PDZ__Q96L92_40_141 = molecular target: SNX27_PDZ__Q96L92_40_141
# SPOP_MATH__O43791_19_176 = molecular target: T2, SPOP_MATH__O43791_19_176
# [2] = replicate selections in which the peptide was seen: 3
# [3] = replicate selections in which the peptide was seen: 4
# [4] = replicate selections in which the peptide was seen: 6
# [5] = replicate selections in which the peptide was seen: 2
binder,measurement,setting,value
LMPEEAWLLAEIGAVT [TSEN34 52-67 mut Q9BSV6.R58W],mean normalised NGS count,[1]; [2],3.32
VTSSVRPDSWAALALA [GATA6 580-595 wt],mean normalised NGS count,[1]; [2],1.48
DLDLTVQETSLQGPVG [CASR 1022-1037 mut P41180.G1031S],mean normalised NGS count,SNX27_PDZ__Q96L92_40_141; [3],0.0105
EQLSENAAISETSFSS [ASXL3 600-615 wt],mean normalised NGS count,SNX27_PDZ__Q96L92_40_141; [4],49.2
YLSLLQAATFKGWMDI [SCN1A 1422-1437 mut P35498.V1428A],mean normalised NGS count,[1]; [2],0.0179
ADSLWWGTITSTTIGY [KCNQ4 271-286 mut P56696.L281S],mean normalised NGS count,SPOP_MATH__O43791_19_176; [2],0.0526
NATELQIDSASSSEQI [BRCA1 635-650 mut P38398.E649Q],mean normalised NGS count,SPOP_MATH__O43791_19_176; [2],1.82
SGPESSVKVTSSIPVF [POGZ 352-367 mut Q7Z3K3.M358V],mean normalised NGS count,SPOP_MATH__O43791_19_176; [2],0.104
LFDSLYFAIVTLSTVG [KCNT2 229-244 mut Q6UVM3.F240L],mean normalised NGS count,[1]; [5],1.2
HWTINKEIKETEFKGI [AHI1 786-801 wt],mean normalised NGS count,SNX27_PDZ__Q96L92_40_141; [5],0.00638
ETVGAALLLNLLAGLG [GPIHBP1 162-177 wt],mean normalised NGS count,[1]; [5],0.155
SVSLKLEESKATSSSN [ATRX 1978-1993 wt],mean normalised NGS count,SPOP_MATH__O43791_19_176; [5],0.136
LEEWLRQEMEVQNQHA [NBN 719-734 wt],mean normalised NGS count,[1]; [3],0.16
YLSLLQAATFKGWMDI [SCN2A 1422-1437 mut P35498.V1428A],mean normalised NGS count,[1]; [2],0.0179
NINEVGSSTNEVGSSI [BRCA1 1043-1058 wt],mean normalised NGS count,SPOP_MATH__O43791_19_176; [2],0.00526
VSVPDSSGPERILSIS [HNRNPK 76-91 wt],mean normalised NGS count,SPOP_MATH__O43791_19_176; [2],1.58
NSWNSLVLADSHGDII [GATA4 425-440 mut P43694.D425N],mean normalised NGS count,SPOP_MATH__O43791_19_176; [5],0.00452
YNASVSVPDSSGPERI [HNRNPK 72-87 wt],mean normalised NGS count,SPOP_MATH__O43791_19_176; [5],0.00514
LQPAHRLSASPTVSSS [HNF1A 578-593 wt],mean normalised NGS count,SPOP_MATH__O43791_19_176; [2],0.193
QNSPWKETSLDHPYEK [INAVA 320-335 wt],mean normalised NGS count,SNX27_PDZ__Q96L92_40_141; [2],0.0118
VTVETHPVQETTFHVA [DYRK1A 577-592 wt],mean normalised NGS count,SNX27_PDZ__Q96L92_40_141; [5],0.00342
MGLLEAAARALVGAPF [PLP1 1-16 wt],mean normalised NGS count,[1]; [3],12.5
LELSVVAKEVKKAPVI [MYPN 1159-1174 wt],mean normalised NGS count,SPOP_MATH__O43791_19_176; [5],0.112
MAVLVSEASARLLQQE [RARS1 1-16 mut P54136.D2A],mean normalised NGS count,[1]; [2],0.336
MDVLVSEASARLLQQE [RARS1 1-16 wt],mean normalised NGS count,[1]; replicate selections in which the peptide was seen: 5,16.8
YLSLLQAATFKGWMDI [SCN4A 1422-1437 mut P35498.V1428A],mean normalised NGS count,[1]; [2],0.0179
EQLLENAAISETSFSS [ASXL3 600-615 mut Q9C0F0.S603L],mean normalised NGS count,SNX27_PDZ__Q96L92_40_141; [4],50
GTRPGLEELYWLATLQ [NRL 64-79 wt],mean normalised NGS count,[1]; [3],0.282
VSVPDSSDPERILSIS [HNRNPK 76-91 mut P61978.G83D],mean normalised NGS count,SPOP_MATH__O43791_19_176; [2],0.0702

# — the supplement of paper PMC11369174, “Proteome-scale characterisation of motif-based interactome rewiring by disease mutations” (Molecular Systems Biology, 2024)
